Test results taken from patent US8461176B2, “Enantiomerically enriched aryloazol-2-yl cyanoethylamino compounds, method of making and method of using thereof” (Merial Limited, priority 2008, dated 2013).
Some results were stated once for a whole list of compounds, not compound by compound. For some of these results: For at least one compound, name, drawing or mass did not settle the structure.

Legend:
Haemonchus contortus [1] = experiment: Method B: activity against Haemonchus contortus in vivo in Mongolian gerbil; set-up: species or system Mongolian gerbil (Meriones unguiculatus); details: oral gavage, necropsy 3 days after treatment
Protocol: Method B: Screening Method to Test Activity of Compounds Against Haemonchus contortus In Vivo in Mongolian Gerbil (Meriones unguiculatus).
Mongolian gerbils, at least five weeks old, were immunosuppressed and artificially infected with ca. 1000 ensheathed Haemonchus contortus third instar larvae. Six days after infection, the Mongolian gerbils were treated by oral gavage with the test compounds, dissolved in a mixture of 2 parts DMSO and 1 part polyethylene glycol (PEG400), at doses of 100 mg/kg and dissolved in pure polyethylene glycol (PEG400) at doses of 10 and 1 mg/kg. Mongolian gerbils treated only with the placebo (2 parts DMSO and 1 part PEG400 or pure PEG400) served as controls. On day 9 (3 days after treatment) the jirds were euthanized and necropsied for recovery of parasites from the stomach. Efficacy was calculated as the average % reduction in the number of worms in each test group compared with the average number of worms from the control group. […] Compound numbers 1.001, 1.008, 1.012, 1.013 and 1.014 provided at least 95% reduction in nematode in Mongolian gerbils treated by oral gavage with test article at a dose of 100 mg/kg. Compound numbers 1.012, 1.033, 1.064, 2.008, 2.037, 2.038, 2.040, 2.041, 3.001 provided at least 95% reduction in nematode infection at a dose of 10 mg/kg. Compound numbers 1.094, 1.096, 2.048, 3.001, 3.007 and 3.009, provided at least 95% reduction in nematode infection at a dose of 1 mg/kg. Compound numbers 3.006, 3.017 and 3.019 provided at least 95% reduction in nematode infection at a dose of 0.5 mg/kg. Compound numbers 3.005, 3.011 and 3.012 provided at least 95% reduction in nematode infection at a dose of 0.3 mg/kg. The eutomer compound number 3.024 provided at least 95% reduction in nematode infection at a dose of 0.1 mg/kg.

[2] = system: Haemonchus contortus, Ostertagia circumcincta, Trichostrongylus axei, Trichostrongylus colubriformis, Cooperia curticei and Nematodirus battus; experiment: Method E: activity against induced mixed nematode infection in vivo in sheep (all species); details: oral; for reduction in nematode infection: once, dose 30 mg/kg, necropsy Day 15
Ctenocephalides felis = experiment: Method C: activity against Ctenocephalides felis (membrane feeding on treated bovine blood, pupal weights and adult emergence)
[3] = system: Trichostrongylus colubriformis; experiment: Method D: screening of activity against Trichostrongylus colubriformis L1 larvae in microtitre plate; details: 4 days assessment
Haemonchus contortus [4] = experiment: Method A: screening of activity against Haemonchus contortus L1 larvae in microtitre plate (development to L3 / motility); details: 4 days assessment
[5] = system: microfilaria of Dirofilaria immitis; experiment: Method F: activity against microfilaria of Dirofilaria immitis in microtitre plate; details: test concentration 50 ppm; assessment at 24 hours
[6] = test concentration 100 ppm in bovine blood
[7] = test concentration 50 ppm in bovine blood

Q: How did the “reduction in nematode infection” value (Haemonchus contortus [1]; dose 1 mg/kg, 1 mg/kg) turn out when `CC(C#N)(Cn1nc2c(Cl)cc(Cl)c(Cl)c2n1)NC(=O)c1ccc(OC(F)(F)F)cc1` (single isomer, unassigned; (-)) [Compound 1.097, (−)-N-[1-Cyano-1-methyl-2-(4,5,7-trichloro-2H-benzotriazol-2-yl)-ethyl]-4-trifluoromethoxybenzamide] was run?
A: Its value is under 95%.

Q: `CC(C#N)(Cn1nc2cc(Cl)cc(Cl)c2n1)NC(=O)c1ccc(OC(F)(F)F)cc1` (stereo not shown) [Compound 1.012, N-[1-Cyano-2-(4,6-dichloro-2H-benzotriazol-2-yl)-1-methylethyl]-4-trifluoromethoxybenzamide] was tested. Which “reduction in nematode infection” value [2] did it give?
A: Its value is “at least 90%”.

Q: For `Cc1cc(Cl)cc2nn(CC(C)(C#N)NC(=O)c3ccc(SC(F)(F)F)cc3)nc12` (stereo not shown) [Compound 1.034, N-[2-(6-Chloro-4-methyl-2H-benzotriazol-2-yl)-1-cyano-1-methylethyl]-4-trifluoromethylthiobenzamide], which “reduction in pupal weights” value (Ctenocephalides felis; [6]) is on record?
A: The value was “at least 80%”.

Q: And the motility inhibition ([3]; test concentration 0.01 ppm)?
A: The motility inhibition was “at least 90%”.

Q: And the motility inhibition (Haemonchus contortus [4]; test concentration 0.01 ppm)?
A: The motility inhibition was “at least 90%”.

Q: For `CC(C#N)(Cn1nc2cc(C#N)cc(C(F)(F)F)c2n1)NC(=O)c1ccc(SC(F)(F)F)cc1` (stereo not shown) [Compound 1.066, N-[1-Cyano-2-(6-cyano-4-trifluoromethyl-2H-benzotriazol-2-yl)-1-methylethyl]-4-trifluoromethylthiobenzamide], which motility inhibition ([3]; test concentration 0.04 ppm) is on record?
A: Its motility inhibition is “at least 90%”.

Q: And the motility inhibition (Haemonchus contortus [4]; test concentration 0.04 ppm)?
A: Its motility inhibition is “at least 90%”.

Q: Which motility inhibition ([3]; test concentration 0.04 ppm) does the source give for `COc1cc(Cl)c2nn(CC(C)(C#N)NC(=O)c3ccc(SC(F)(F)F)cc3)nc2c1` (stereo not shown) [Compound 1.071, N-[2-(4-Chloro-6-methoxy-2H-benzotriazol-2-yl)-1-cyano-1-methylethyl]-4-trifluoromethylthiobenzamide] here?
A: The motility inhibition was “at least 90%”.

Q: What about the motility inhibition (Haemonchus contortus [4]; test concentration 0.04 ppm) of the same compound?
A: Its motility inhibition is “at least 90%”.

Q: What does the source list for `COc1c2ccc(Cl)cc2nn1CC(C)(C#N)NC(=O)c1ccc(SC(F)(F)F)cc1` (stereo not shown) [Compound 2.009, N-[2-(6-Chloro-3-methoxy-2H-indazol-2-yl)-1-cyano-1-methylethyl]-4-trifluoromethylthiobenzamide]?
A: motility inhibition ([3]; test concentration 0.01 ppm): at least 90%; motility inhibition (Haemonchus contortus [4]; test concentration 0.0025 ppm): at least 90%

Q: Which results are given for `CC(C#N)(Cn1cc2ccc(Cl)cc2n1)NC(=O)c1ccc(SC(F)(F)F)cc1` (stereo not shown) [Compound 2.038, N-[2-(6-Chloro-2H-indazol-2-yl)-1-cyano-1-methylethyl]-4-trifluoromethylthiobenzamide]?
A: reduction in nematode infection (Haemonchus contortus [1]; dose 10 mg/kg): at least 95%; motility inhibition (Haemonchus contortus [4]; test concentration 0.0025 ppm): at least 90%

Q: Which “reduction in nematode infection” value (Haemonchus contortus [1]; dose 10 mg/kg) does the source give for `CC(C#N)(Cn1cc2c(Cl)cc(Cl)cc2n1)NC(=O)c1ccc(SC(F)(F)F)cc1` (stereo not shown) [Compound 2.041, N-[1-Cyano-2-(4,6-dichloro-2H-indazol-2-yl)-1-methylethyl]-4-trifluoromethylthiobenzamide] here?
A: The value was “at least 95%”.

Q: And the motility inhibition (Haemonchus contortus [4]; test concentration 0.0025 ppm)?
A: Its motility inhibition is “at least 90%”.

Q: Which results are given for `CC(C#N)(Cn1cc2cc(Br)c(Cl)c(Cl)c2n1)NC(=O)c1ccc(OC(F)(F)F)cc1` (stereo not shown) [Compound 2.047, N-[2-(7-Bromo-6,7-dichloro-2H-indazol-2-yl)-1-cyano-1-methylethyl]-4-trifluoromethoxybenzamide]?
A: motility inhibition [5]: at least 90%; motility inhibition (Haemonchus contortus [4]; test concentration 0.0025 ppm): at least 90%

Q: How did the “reduction in pupal weights” value (Ctenocephalides felis; [7]) turn out when `CC(C#N)(Cn1cc2c(Cl)cc(Cl)c(Cl)c2n1)NC(=O)c1ccc(OC(F)(F)F)cc1` (stereo not shown) [Compound 2.048, N-[1-Cyano-1-methyl-2-(4,6,7-trichloro-2H-indazol-2-yl)ethyl]-4-trifluoromethoxybenzamide] was run?
A: The value was “at least 95%”.

Q: Which “reduction in pupal weights” value (Ctenocephalides felis; [7]) does the source give for `CC(C#N)(Cn1cc2ncc(Br)cc2n1)NC(=O)c1ccc(OC(F)(F)F)cc1` (stereo not shown) [Compound 3.011, N-[2-(6-Bromo-2H-pyrazolo[4,3-b]pyridin-2-yl)-1-cyano-1-methylethyl]-4-trifluoromethoxybenzamide] here?
A: The value was “at least 95%”.

Q: For `C[C@](C#N)(Cn1cc2ncc(Br)cc2n1)NC(=O)c1ccc(OC(F)(F)F)cc1` [Compound 3.024, (+)-N-[2-(6-Bromo-2H-pyrazolo[4,3-b]pyridin-2-yl)-1-cyano-1-methylethyl]-4-trifluoromethoxybenzamide], which “reduction in pupal weights” value (Ctenocephalides felis; [7]) is on record?
A: Its value is “at least 95%”.

Q: And the “efficacy against one or more species of the nematodes tested” value ([2]; doses as low as 1 or 3 mg/kg)?
A: Its value is over 90%.

Q: Which “reduction in pupal weights” value (Ctenocephalides felis; [6]) does the source give for “N-[1-Cyano-2-(4,6-dichloro-2H-benzotriazol-2-yl)-1-methylethyl]-4-trifluoromethylthiobenzamide [Compound 1.013]” here?
A: The value was “at least 80%”.

Q: What about the “reduction in nematode infection” value [2] of the same compound?
A: Its value is “at least 90%”.

Q: And the motility inhibition [5]?
A: Its motility inhibition is “at least 90%”.

Q: What about the reduction in nematode (Haemonchus contortus [1]; dose 100 mg/kg) of the same compound?
A: Its reduction in nematode is “at least 95%”.
